Test results from the supplement of paper PMC6089552.
The whole screen tested about 3,200 compounds, of which about 300 (9.4%) showed activity. Only a part is listed here, and it is no random draw.

System: A673/TR/shEF
Experiment: cell viability (LOESS-normalised, relative to median of negative controls) (log2 ratio); higher = more viable cells (less compound effect), active = hit call of the paper (over 3 MAD below the median)
Conditions: treatment time: 72 h
How it was run: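 Viability of A673/TR/shEF Ewing sarcoma cells was determined by CellTiter-Glo luminescence. The cells, at 1,500 per well in 384-well plates, were grown with or without doxycycline from 24 h before compound addition to switch on EWS-FLI1 shRNA knockdown, then exposed for three days to library compounds at two or more concentrations or to DMSO controls. Signals were LOESS-corrected plate by plate, normalised to the negative-control median and log2-transformed.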

[1] = 0.25 µM, library screen: screen1, EWS-FLI1 expression: high (no doxycycline)
[2] = 0.25 µM, library screen: screen1, EWS-FLI1 expression: low (doxycycline-induced shRNA knockdown)
[3] = 2.5 µM, library screen: screen1, EWS-FLI1 expression: high (no doxycycline)
[4] = 2.5 µM, library screen: screen1, EWS-FLI1 expression: low (doxycycline-induced shRNA knockdown)
[5] = 0.25 µM, library screen: screen2, EWS-FLI1 expression: high (no doxycycline)
[6] = 0.25 µM, library screen: screen2, EWS-FLI1 expression: low (doxycycline-induced shRNA knockdown)
[7] = 2.5 µM, library screen: screen2, EWS-FLI1 expression: high (no doxycycline)
[8] = 2.5 µM, library screen: screen2, EWS-FLI1 expression: low (doxycycline-induced shRNA knockdown)
[9] = 25 µM, library screen: screen1, EWS-FLI1 expression: high (no doxycycline)
[10] = 25 µM, library screen: screen2, EWS-FLI1 expression: high (no doxycycline)
[11] = 25 µM, library screen: screen2, EWS-FLI1 expression: low (doxycycline-induced shRNA knockdown)
[12] = 0.103 µM, library screen: screen3, EWS-FLI1 expression: high (no doxycycline)
[13] = 0.103 µM, library screen: screen3, EWS-FLI1 expression: low (doxycycline-induced shRNA knockdown)
[14] = 0.308 µM, library screen: screen3, EWS-FLI1 expression: high (no doxycycline)
[15] = 0.308 µM, library screen: screen3, EWS-FLI1 expression: low (doxycycline-induced shRNA knockdown)
[16] = 0.926 µM, library screen: screen3, EWS-FLI1 expression: high (no doxycycline)
[17] = 0.926 µM, library screen: screen3, EWS-FLI1 expression: low (doxycycline-induced shRNA knockdown)
[18] = 2.8 µM, library screen: screen3, EWS-FLI1 expression: high (no doxycycline)
[19] = 2.8 µM, library screen: screen3, EWS-FLI1 expression: low (doxycycline-induced shRNA knockdown)
[20] = 8.3 µM, library screen: screen3, EWS-FLI1 expression: high (no doxycycline)
[21] = 8.3 µM, library screen: screen3, EWS-FLI1 expression: low (doxycycline-induced shRNA knockdown)
[22] = 25 µM, library screen: screen3, EWS-FLI1 expression: high (no doxycycline)
[23] = 25 µM, library screen: screen3, EWS-FLI1 expression: low (doxycycline-induced shRNA knockdown)

Measured: cell viability (log2)

CC(=O)O[C@H]1CC[C@@]2(C)C(=CCC3C2CC[C@]2(C)C(=O)CCC32)C1 (some centres not stated)
inactive: [1] 0.0955 | [2] 0.0874 | [3] 0.042 | [4] 0.106

COc1cc2c(c(OC)c1OC)-c1ccc(O)c(=O)cc1C(NC(C)=O)CC2 (configuration not stated)
active: [3] -1.1 | [4] -0.493

O=c1[nH]oc2c1CCNC2
inactive: [1] 0.156 | [2] 0.0142 | [5] 0.166 | [6] 0.0432 | [3] 0.0605 | [4] 0.0304 | [7] 0.193 | [8] 0.0406

CC(C)(O)[C@@H]1[C@H]2OC(=O)[C@@H]1[C@]1(O)C[C@H]3O[C@]34C(=O)O[C@H]2[C@]14C
inactive: [2] 0.12 | [3] 0.239 | [4] 0.206
0.592: [1]

CC(C)(C#N)O[C@@H]1O[C@H](CO)[C@@H](O)[C@H](O)[C@H]1O
inactive: [1] 0.0597 | [2] 0.0616 | [3] 0.164 | [4] -0.0392

COc1cc(C(O)CN)ccc1O (configuration not stated)
inactive: [5] 0.137 | [6] 0.137 | [7] 0.0316 | [8] 0.00185

N#CC(C#N)=Cc1cc(O)c(O)c([N+](=O)[O-])c1
active: [3] -0.167 | [9] -0.153

C[C@@H]1C[C@@H]([C@H](O)CC2CC(=O)NC(=O)C2)C(=O)[C@@H](C)C1
active: [3] -0.514 | [4] -0.278 | [7] -0.922 | [8] -0.399 | [10] -2.23 | [11] -1.54

CNc1ccc2oc(C[C@@H]3OC4(CC[C@@H]3C)O[C@H](C(C)C(=O)c3ccc[nH]3)[C@H](C)C[C@H]4C)nc2c1C(=O)O (some centres not stated)
active: [5] -0.082 | [7] -0.175
inactive: [1] 0.111 | [2] 0.0323 | [6] 0.0959 | [3] -0.0263 | [4] -1.11 | [8] 0.1

CC(C)(C)c1cc(C=C(C#N)C#N)cc(C(C)(C)C)c1O
active: [3] -1.1 | [9] -3.7 | 25 µM, library screen: screen1, EWS-FLI1 expression: low (doxycycline-induced shRNA knockdown) -2.45

O=C(O)c1nn(Cc2ccc(Cl)cc2Cl)c2ccccc12
inactive: [1] 0.228 | [2] 0.122 | [5] 0.112 | [6] 0.137 | [3] 0.215 | [4] 0.0979 | [7] 0.168 | [8] 0.101

CCCCOC(=O)c1ccccc1C(=O)OCCCC
inactive: [1] 0.118 | [2] 0.0394 | [3] 0.0831 | [4] -0.283

COc1ccc2c(c1OC)C(=O)O[C@H]2[C@H]1c2cc3c(cc2CCN1C)OCO3
inactive: [1] 0.11 | [2] 0.0969 | [3] -0.0012 | [4] 0.0503

CC[C@@H](CO)NC(=O)[C@@H]1C=C2c3cccc4[nH]cc(c34)C[C@H]2N(C)C1
inactive: [5] 0.18 | [6] 0.103 | [7] 0.127 | [8] 0.0973

CCOC(=O)c1ncn2c1[C@@H]1CCCN1C(=O)c1cc(OC)ccc1-2
inactive: [5] 0.0615 | [6] 0.0119 | [7] 0.0436 | [8] 0.0121

NC(N)=Nc1ccc2[nH]c3c(c2c1)C[C@@]1(O)[C@H]2Cc4ccc(O)c5c4[C@@]1(CCN2CC1CC1)[C@H]3O5
inactive: [5] 0.0964 | [6] 0.0365 | [7] 0.0323 | [8] 0.0828

C[C@]12CC[C@H]3[C@@H](CCC4=CC(=O)CC[C@@]43C)[C@@H]1CC[C@@H]2OC(=O)CCC1CCCC1
inactive: [12] -0.000785 | [13] 0.011 | [14] 0.0351 | [15] 0.0268 | [16] 0.0442 | [17] 0.0219 | [18] 0.0558 | [19] 0.00975 | [20] 0.0577 | [21] 0.0516 | [22] 0.0518 | [23] 0.0747

C/C=C(/C)C(=O)O[C@H]1C(C)=C2[C@H]([C@@H]1OC(=O)CCCCCCC)[C@@](C)(OC(C)=O)C[C@H](OC(=O)CCC)[C@@]1(O)[C@H]2OC(=O)[C@@]1(C)O
active: [5] -3.16 | [6] -2.76 | [7] -3.49 | [8] -2.81

CC[N+]1(C)CCCC(OC(=O)C(O)(c2ccccc2)c2ccccc2)C1 (configuration not stated)
inactive: [1] 0.12 | [2] 0.0657 | [3] 0.139 | [4] 0.0957

CCCCCC[C@H]1C(=O)O[C@H](C)[C@H](NC(=O)c2cccc(NC=O)c2O)C(=O)O[C@@H](C)[C@@H]1OC(=O)CC(C)C
active: [1] -0.888 | [2] -0.636 | [3] -1.71 | [4] -0.774

CCCN(CCC)[C@H]1CCc2c(F)ccc(O)c2C1
inactive: [5] 0.127 | [6] 0.127 | [7] 0.109 | [8] 0.143

CCCCSP(=O)(SCCCC)SCCCC
active: [1] -0.12

N#Cc1c(Cl)c(Cl)c(Cl)c(C#N)c1Cl
active: [3] -0.219
inactive: [1] -0.0732 | [2] 0.00425 | [4] 0.063

CC(C)Nc1nc(Cl)nc(NC(C)C)n1
inactive: [1] 0.16 | [2] 0.0964 | [3] 0.156 | [4] 0.183

c1ccc2c(c1)OCC(C1=NCCN1)O2 (configuration not stated)
inactive: [5] 0.2 | [6] 0.0971 | [7] 0.109 | [8] 0.0701

CN1C(=O)CN=C(c2ccccc2)c2cc(Cl)ccc21
inactive: [1] 0.0871 | [2] 0.0866 | [3] 0.123 | [4] 0.0545

Cc1cc([C@@H]2CCCN2C)on1
inactive: [5] 0.0967 | [6] 0.135 | [7] 0.0205 | [8] 0.0708

CC(C)[C@@]1(NC(=O)[C@@H]2C=C3c4cccc5[nH]cc(c45)C[C@H]3N(C)C2)O[C@@]2(O)[C@@H]3CCCN3C(=O)[C@H](Cc3ccccc3)N2C1=O
inactive: [5] 0.129 | [6] 0.0491 | [7] 0.0947 | [8] 0.0782

CC[C@@]1([C@H]2O[C@H]([C@H]3O[C@@](O)(CO)[C@H](C)C[C@@H]3C)C[C@H]2C)CC[C@H]([C@@]2(C)CC[C@]3(C[C@H](O)[C@@H](C)[C@@H]([C@H](C)[C@H](OC)[C@@H](C)C(=O)O)O3)O2)O1
active: [3] -0.325

COc1ccc2c(c1)[C@@]13CCCC[C@H]1[C@@H](C2)NCC3
inactive: [5] 0.141 | [6] 0.0967 | [7] 0.0149 | [8] 0.093

COc1cc2c(c(OC)c1OC)-c1ccc(OC)c(=O)cc1[C@@H](NC(C)=O)CC2
active: [1] -4.23 | [2] -0.935 | [5] -3.33 | [6] -0.503 | [3] -4.18 | [4] -0.869 | [7] -3.21 | [8] -0.472 | [10] -3.45 | [11] -0.515

CC[C@@H](CO)NC(=O)[C@@H]1C=C2c3cccc4c3c(cn4C)C[C@H]2N(C)C1
inactive: [5] 0.124 | [6] 0.0568 | [7] 0.0862 | [8] 0.0917

C[CH2][Hg][S]c1ccccc1C(=O)O
active: [1] -0.15 | [3] -3.6 | [4] -2.98

CN1CCc2cc3c(cc2[C@H]1[C@@H]1OC(=O)c2c1ccc1c2OCO1)OCO3
inactive: [1] 0.0332 | [2] 0.0151 | [5] 0.182 | [6] 0.058 | [3] 0.0536 | [4] -0.00339 | [7] 0.066 | [8] 0.0943

OCc1cnc[nH]1
inactive: [5] 0.156 | [6] 0.0587 | [7] 0.0715 | [8] 0.0882

O=C(O)CC[N+](=O)[O-]
inactive: [1] 0.0358 | [2] -0.0127 | [5] 0.071 | [6] 0.135 | [3] 0.00748 | [4] 0.113 | [7] 0.153 | [8] 0.0852

CC(=O)O[C@@H]1CC2C(C)(C)[C@H](O)C=C[C@]2(C)C2CC[C@]3(C)C(=CC(=O)O[C@H]3c3ccoc3)[C@@]21C (some centres not stated)
inactive: [1] 0.113 | [2] 0.0781 | [3] 0.222 | [4] 0.195

Oc1ccc2c3c1O[C@H]1[C@@H](O)CC[C@@]4(O)[C@@H](C2)N(CC2CCC2)CC[C@]314
inactive: [1] 0.179 | [2] 0.0385 | [5] 0.193 | [6] 0.0903 | [3] 0.196 | [4] 0.1 | [7] 0.143 | [8] 0.153

CCC(=O)C(CC(C)N1CCOCC1)(c1ccccc1)c1ccccc1 (configuration not stated)
inactive: [1] 0.0298 | [2] 0.011 | [3] 0.0537 | [4] -0.074

CN1C[C@H](CNC(=O)OCc2ccccc2)C[C@@H]2c3cccc4c3c(cn4C)C[C@H]21
inactive: [1] 0.0915 | [2] 0.0924 | [5] 0.162 | [6] 0.0868 | [3] 0.139 | [4] 0.265 | [7] 0.088 | [8] 0.156

Cc1[nH]c2ccccc2c1CN(C)C
inactive: [1] 0.0738 | [2] 0.0842 | [3] 0.116 | [4] 0.138

CC(C)c1cccc(C(C)C)c1O
inactive: [5] 0.212 | [6] 0.0586 | [7] 0.0835 | [8] 0.0729

O=C(OC1CC2CCC(C1)[N+]21CCCC1)C(O)(c1ccccc1)c1ccccc1 (configuration not stated)
inactive: [12] 0.0271 | [13] 0.0529 | [14] 0.0379 | [15] 0.0384 | [16] -0.0177 | [17] 0.0427 | [18] 0.0921 | [19] 0.0957 | [20] 0.022 | [21] 0.0679 | [22] 0.0665 | [23] 0.0295
